Laboratory results taken from patent US10702575B2, “Pharmaceutical composition for preventing or treating mycobacterium species infection and method using the same” (Seoul National University R&DB Foundation, priority 2017, dated 2020).

Tested on: Mtb-infected macrophage
Settings: 1 μM, 5 μM, 10 μM, about 24 hours

Row | Compound | amount of IL-1β secreted (FIG. 12A) | amount of IL-6 secreted (FIG. 12A) | amount of IL-12 p40 secreted (FIG. 12A) | amount of TNF-α secreted (FIG. 12A)
1 | CNC(C(=O)NC(C(=O)NC1C(=O)N(C)C(C(C)O)C(=O)NC(C(C)C)C(=O)N(C)C(CC(C)C)C(=O)NC(C(C)C)C(=O)N(C)C(C(C)C)C(=O)N(C)C(Cc2c[nH]c3cccc(OC)c23)C(=O)NC(C(C)C)C(=O)NC(C(O)c2ccccc2)C(=O)NC(C(C)C)C(=O)OC1C)C(C)C)C(C)C (centres unmarked) [OMS-A, Ohmyungsamycin A] (H-[NMeV]VT[NMeT]V[NMeL]V[NMeV][NMeTrp(4-OMe)]V[X1]V; ester 3-C; configuration not given here) | decreased in a concentration-dependent manner | decreased in a concentration-dependent manner | decreased in a concentration-dependent manner | decreased in a concentration-dependent manner
2 | COc1cccc2[nH]cc(CC3C(=O)NC(C(C)C)C(=O)NC(C(O)c4ccccc4)C(=O)NC(C(C)C)C(=O)OC(C)C(NC(=O)C(NC(=O)C(C(C)C)N(C)C)C(C)C)C(=O)N(C)C(C(C)O)C(=O)NC(C(C)C)C(=O)N(C)C(CC(C)C)C(=O)NC(C(C)C)C(=O)N(C)C(C(C)C)C(=O)N3C)c12 (centres unmarked) [OMS-B, Ohmyungsamycin B] (ξNMe2Val-VT[NMeT]V[NMeL]V[NMeV][NMeTrp(4-OMe)]V[X1]V; ester 2-C; configuration not given here) | decreased in a concentration-dependent manner | decreased in a concentration-dependent manner | decreased in a concentration-dependent manner | decreased in a concentration-dependent manner

*1 amine or outer side, *2 acyl side, *3 side chain or, on linkers, in order; H or OH if unused. Where a SMILES comes first, the peptide text is derived from it. Bridges are numbered along the chain shown (N, C = ends). [ ]: non-standard residue; d: D form. The star is where a group is joined. ξ: configuration not given here. NMeTrp(4-OMe) = CN[CH](Cc1c[nH]c2cccc(OC)c12)C(=O)O; X1 = O=C(C(N[*:1])C(O)c1ccccc1)[*:2]; ξNMe2Val = CC(C)C(C(=O)*)N(C)C; NMeT = CN[CH](C(=O)O)[CH](C)O; NMeL = CN[CH](CC(C)C)C(=O)O; NMeV = CN[CH](C(=O)O)C(C)C
